Laboratory results: PubChem BioAssay AID360 (National Center for Advancing Translational Sciences (NCATS), 2006)
The whole screen tested about 48,000 compounds, of which about 550 (1.1%) were called active. Inconclusive results (about 4%) are left out. No stated cut-off is given here; in the data, active means potency below about 15 µM; inconclusive means mostly about 16 µM to 33 µM; inactive means weaker than that. This is one part of the list.

target: Lysosomal acid glucosylceramidase (Homo sapiens) (UniProt P04062); experiment: Glucocerebrosidase; conditions: purified enzyme, resorufin glucoside fluorescence (screen aimed at inhibitors), 20 min;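 further: the screen sought inhibitors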
Method in brief: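 Normal human glucocerebrosidase (0.2 nM final) was assayed with resorufin β-D-glucopyranoside (30 uM final) in 50mM citric acid/KH2PO4, 10mM sodium taurocholate, 0.01% tween-20, pH 5.9. Compounds were titrated; fluorescence (Ex 548, Em 600) read after 20 min at RT.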
Potency means the concentration at half of the fitted maximal effect.

Sequence of UniProt P04062 (P04062 whole entry, looked up): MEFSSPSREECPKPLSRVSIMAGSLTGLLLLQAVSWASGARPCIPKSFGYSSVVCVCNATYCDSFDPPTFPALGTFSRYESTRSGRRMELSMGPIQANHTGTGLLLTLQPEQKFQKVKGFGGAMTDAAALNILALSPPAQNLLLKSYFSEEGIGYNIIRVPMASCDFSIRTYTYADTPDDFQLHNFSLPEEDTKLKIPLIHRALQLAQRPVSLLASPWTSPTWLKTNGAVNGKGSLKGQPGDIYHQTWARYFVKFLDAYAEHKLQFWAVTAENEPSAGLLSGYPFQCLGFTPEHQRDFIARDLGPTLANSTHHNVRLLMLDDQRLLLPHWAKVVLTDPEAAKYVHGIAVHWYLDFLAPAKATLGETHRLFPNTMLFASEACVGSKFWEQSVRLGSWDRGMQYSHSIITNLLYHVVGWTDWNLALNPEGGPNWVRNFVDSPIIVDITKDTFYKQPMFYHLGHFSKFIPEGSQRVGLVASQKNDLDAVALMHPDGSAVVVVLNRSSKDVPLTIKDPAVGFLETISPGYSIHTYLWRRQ

Potency, inactive:
Oc1c(CN2CCCCC2)cc(Br)c2cccnc12 > 76.9 µM
CC(c1ccccc1)n1cc(C(=O)NCc2ccccn2)nn1 (centres undefined) > 76.9 µM
O=C(NCC1CCCO1)C1CCN(S(=O)(=O)Cc2ccccc2)CC1 (centres undefined) > 76.9 µM
O=C1CC(N2CCN(c3ccc(S(=O)(=O)N4CCCC4)cc3)CC2)C(=O)N1c1ccc(F)cc1 (centres undefined) > 76.9 µM
CCOC(=O)CCC(NC(=O)c1ccc(NCN2C(=O)CCC2=O)cc1)C(=O)OCC (centres undefined) > 76.9 µM
CCOc1ccccc1-c1nnc(SCC(=O)Nc2ccccc2)o1 > 76.9 µM
CC(=O)C1C(c2ccc(F)c(F)c2)NC(=O)NC1(O)C(F)(F)F (centres undefined) > 76.9 µM
CCN(CC)c1nc(Nc2ccccc2)nc(Oc2ccc(=O)[nH]n2)n1 > 76.9 µM
CC1(C)CC2CC(C)(CN2c2ncnc3ccccc23)C1 (centres undefined) > 76.9 µM
O=c1nc(NC2CCCC2)ccn1Cc1cccc(Br)c1 > 76.9 µM
COc1ccc(CNC(=O)C2CC(c3cccc(OC)c3)=NO2)cc1 (centres undefined) > 76.9 µM
CCOC(=O)c1sc2ccc(S(=O)(=O)N3CCCCC3)cc2c1N > 76.9 µM
COc1ccccc1NC=C1C(=O)OC2(CCCCC2)OC1=O > 76.9 µM
CNC(=O)c1ccccc1NC(=O)c1cccc(S(=O)(=O)N2CCC(C)CC2)c1 > 76.9 µM
CCCCOP(=O)(c1ccc(N(C)C)cc1)C(O)c1ccncc1 (centres undefined) > 76.9 µM
COc1cccc(OCC(=O)Nc2ccccc2C(N)=O)c1 > 76.9 µM
O=C(Cn1c(-c2ccccn2)nc2ccccc21)NCCN1CCOCC1 > 76.9 µM
COc1ccccc1OCC(=O)Nc1cccc(-c2nc3ccccc3o2)c1 > 76.9 µM
O=C(O)C1C2C=CC3(CN(Cc4ccncc4)C(=O)C13)O2 (centres undefined) > 76.9 µM
O=c1ccnc(NCCc2ccccc2)[nH]1 > 76.9 µM
CCOc1ccccc1CNC(=O)C1CCC(=O)N1C(C)C (centres undefined) > 76.9 µM
CCNc1nc(NC(C)C)nc(N(C#N)CCOc2ccc(Cl)cc2Cl)n1 > 76.9 µM
CCOc1ccc(OCc2ccc(C(=O)O)o2)cc1 > 76.9 µM
CC1(C)CC(=O)C(C=NC(CCC(N)=O)C(=O)O)=C(O)C1 (centres undefined) > 76.9 µM
CSc1nc(C)c(Cl)c(C)c1C#N > 76.9 µM
COc1ccc(C)cc1-n1nnnc1SCC1CCCCO1 (centres undefined) > 76.9 µM
CCC(C)C(NC(=O)OC(C)(C)C)C(=O)NCc1ccco1 (centres undefined) > 76.9 µM
OC(Cn1cncn1)c1ccc(Cl)cc1Cl (centres undefined) > 76.9 µM
CCOc1ccccc1NC(=O)CCc1ccc(C)o1 > 76.9 µM
CCCC(=O)Nc1c2c(nn1-c1ccc(OC)cc1)CS(=O)(=O)C2 > 76.9 µM
Cn1ncc2c(NCc3ccccc3)ncnc21 > 76.9 µM
Cc1ccc(Cn2ccc(NC(=O)c3noc4c3CCCCC4)n2)cc1 > 76.9 µM
Cc1cccc(-c2noc(CCCC(=O)Nc3cccnc3)n2)c1
CCOc1ccc(S(=O)(=O)NCc2csc(C)n2)cc1 > 76.9 µM
Cc1ccc2cc(CN(CC3CCCO3)C(=O)c3ccco3)c(=O)[nH]c2c1C (centres undefined) > 76.9 µM
COc1cc(S(=O)(=O)N2CCOCC2)c(OC)c(S(=O)(=O)N2CCOCC2)c1 > 76.9 µM
COc1ccc(N2CCN(CC(=O)N3CCC(C)CC3)CC2)cc1 > 76.9 µM
CC(=O)c1coc2ccc(OCC(=O)O)cc12 > 76.9 µM
O=c1c2ccccc2nc2sc3ccccc3n12 > 76.9 µM
CCc1nc2ccccc2c(=O)n1CCCCn1c(CC)nc2ccccc2c1=O > 76.9 µM
Cc1ccc(CNC(=O)CN(C)S(=O)(=O)c2cccc3nsnc23)cc1 > 76.9 µM
CS(=O)(=O)N(CC(=O)NCC1CCCO1)c1ccc(F)c(Cl)c1 (centres undefined) > 76.9 µM
CC(=O)Nc1cccc(NS(=O)(=O)Cc2ccc(Cl)cc2)c1 > 76.9 µM
Cc1ccc(C(=O)C(C)OC(=O)C2=COCCO2)cc1C (centres undefined) > 76.9 µM
Cc1ccccc1S(=O)(=O)Cc1ccc(C(=O)NCCN2CCCCC2C)o1 (centres undefined) > 76.9 µM
CCN(c1ccc2c(c1)OCO2)S(=O)(=O)c1cc(Br)cc2c1N(C(=O)C1CC1)CC2 > 76.9 µM
COc1cccc(N(CC(=O)Nc2cccc(N(C)S(C)(=O)=O)c2)S(C)(=O)=O)c1 > 76.9 µM
C=CCNC(=O)Cn1nc(-c2ccccc2)ccc1=O > 76.9 µM
CCOC(=O)CN1C(=O)C(O)=C(C(C)=O)C1c1ccccc1 (centres undefined) > 76.9 µM
CCOc1ccc(NC(=O)CCS(=O)(=O)c2ccc3c(c2)CCCN3C(C)=O)cc1 > 76.9 µM
Cc1ccc(S(=O)(=O)Cn2nnnc2CN2CCOCC2)cc1 > 76.9 µM
COCCN(Cc1cc2cc3c(cc2n2nnnc12)OCO3)C(=O)c1ccccc1F > 76.9 µM
O=C(CSc1nnc(-c2ccccc2)o1)N1CCN(c2ccccc2)CC1 > 76.9 µM
O=C(CCCCn1c(=O)c2ccccc2n(Cc2ccc(Cl)cc2)c1=O)NCc1ccco1 > 76.9 µM
COc1ccc(OC)c(/C=N/c2oc(-c3ccco3)c(-c3ccco3)c2C#N)c1 > 76.9 µM
Cc1ccccc1Nc1nc(N)nc(CSCc2c(C)noc2C)n1 > 76.9 µM
Nc1nnc(SCCOc2ccc(Br)cc2)s1 > 76.9 µM
Cc1ccc(C)c(Cn2cnc3c(nnn3-c3ccc(F)cc3)c2=O)c1 > 76.9 µM
CC(C)N(Cc1nc(-c2ccccc2)no1)C(=O)CCCN1C(=O)c2ccccc2C1=O > 76.9 µM
